B1: LINE1-mini (parent)
chain: GGCAGAGCUCAACACAGCGUGGCAAAGUGGCUGUGGCUAGACUGCC

Read counts are not given, so values of variants with three or more changes are uncertain.

The variants in this data set derive from B1. Briefly: self-cleavage, relative activity (ratio to wild type); higher = more cleavage; in vitro, sequencing; the parent is a self-cleaving ribozyme.
In the case of G5A C10A C13U G17C U28A G30A U32A, the self-cleavage amounted to 0.01. Regarding G5A A14G C18A A26U G35A C42A, the self-cleavage worked out at 0.18. For G5A C10G A25U the value was 0.02.

As for G5A C13G G22A G35A C45U, the self-cleavage came to 0.35. Regarding G5A A14G G17A G21A G33A U38C C45U, the self-cleavage was 0.07.

In the case of A4U U9G A16C C18A A26G U34A U38A, the self-cleavage was 0.13. For G5A A14G G17C C31U the value was 0.02; for G5A C13U G21A G35U C42U, 0.14.

Take G5A C13U G29C: the self-cleavage amounted to 0.13. For G5A A6G A25G G36A, the self-cleavage is 0.07. For A4U G22A U38G A39C A41C, the self-cleavage turned out to be 0.04.

Take G5A A12C A14G C15G C31A U38A: the self-cleavage was found to be 0.1. For G5A C8G G17U A39G the value was 0.02; for G5A A24C G33A G35C G36C, 0.03; for G5A A11C C18U G35U C45A C46U, 0. Then G5A A16U U38G G44A, with 0.03; and A4U U9C A41C, with 0.04. Turning to G5A C15A G29C G44U, the self-cleavage came out at 0.02. For A4U U9C G27U U43A C46U the value was 0.01; for G5A C10G G36U, 0.06; for G5A A6C A16U G22C U28G G44U, 0.04.

As to G5A C10G C23U A39U, the self-cleavage is 0.03. In the case of G5A A24G G30U, the self-cleavage was found to be 0.08. For G5A C15U G21A A39G C45A, the self-cleavage amounted to 0.03. As to G5A C8U U9C, the self-cleavage came out at 0.04. Then G5A C8G G27U, with 0.03.

In the case of G5A C13U G35A U38A, the self-cleavage amounted to 0.07.

On to G5A A26G G44U, for which the self-cleavage was determined as 0.13. With A4U U28G C42U, the self-cleavage came to 0.05. Take A4U U38G A39U G44C: the self-cleavage amounted to 0.07.

For the variant A4U G29C C37A, the self-cleavage is 0.02.

In the case of G5A A6C A11C C46A, the self-cleavage came out at 0.04. Regarding G5A C13A U32G G33C C46G, the self-cleavage is 0.04. Then G5A C18A A26U C37U, with 0.06; and G5A A6G G7C C15A G22C U32A, with 0.02.

For the variant G5A A6U G21U A24G, the self-cleavage amounted to 0.15. For A4U G21U A41U the value was 0.12; for G5A A6U C8U C23U G27C C37U, 0.19.

Regarding G5A C8U G27A C42A, the self-cleavage was 0.04. For G5A A12U G21A A26G G33U the value was 0. Turning to G5A C18A G22U U34C A41G, the self-cleavage came out at 0.02.

G5A C8G C13A G40U C46G: the self-cleavage came to 0.11. For A4U U9C G19A U20G U32G U34A G36A G40A the value was 0; for G5A C13G U28G G33C A41C, 0.08; for G5A A6G U32C G40C, 0.02. In the case of A4U U9A G19U G35A, the self-cleavage worked out at 0.08. For G5A A14G A16U C23U U28C G35U the value was 0.1.

Regarding A4U G29U U34G, the self-cleavage worked out at 0.05.

Turning to G5A A14U G29A, the self-cleavage was determined as 0.1. For G5A A16U G27U U28A the value was 0.07.

Consider G5A A14U U20C, for which the self-cleavage was found to be 0.71.

Consider G5A A6G G19A G44U, for which the self-cleavage was 0.05. Consider G5A A6C G36U, for which the self-cleavage worked out at 0.98.

G5A A24G U38A A39G G44C: the self-cleavage was 0.04. In the case of G5A C10U A11U C18U, the self-cleavage came out at 0.02.

In the case of A4U G29C G35A, the self-cleavage came to 0.05. Then A4U U32C G36U, with 0.21; and G5A C18G A24C G30C G36A, with 0.06. In the case of G5A A12C G27C C31G, the self-cleavage is 0. For G5A A6C C15A A26U G30A C45U the value was 0.02; for G5A A25U A26G G29A C42A, 0.02; for A4U G29A C45G, 0.04. For G5A A12C G29C G36A, the self-cleavage turned out to be 0.04.

For G5A A12U C18U G22A G27U, the self-cleavage is 0.02.

G5A C13U G22C: the self-cleavage amounted to 0.02.

Turning to A4U G35A C45A, the self-cleavage came to 0.06. Then G5A C13U G27A C45G, with 0.2; and G5A A11U G19A G36U A39G, with 0; and A4U G27C U32G, with 0.02. For G5A A16C G21U A25C the value was 0.06; for G5A A12U C31U A41C, 0. For the variant G5A C8A U28C G35U, the self-cleavage turned out to be 0.08. Then G5A A6G C10A G44C C45A, with 0.02. As to A4U U34C U38A A41U, the self-cleavage amounted to 0.08. Consider G5A C8U C42U, for which the self-cleavage was determined as 0.41. For A4U U9A C10A G21U G30A C46A the value was 0.03; for A4U G29U U32G, 0.07; for G5A C8G G29U C31G A41U, 0.04. For the variant A4U G19C G29U G33C, the self-cleavage was found to be 0.06. Then A4U G27C G36U, with 0.05; and G5A C15G G30C U34A, with 0.04; and G5A C18A A39C C46G, with 0.02. Then G5A C8G U20G, with 0; and A4U U9G C23U G40U A41C, with 0.09; and G5A C8G U9G A16G U28A, with 0.12. Then A4U U9G A39G, with 0.1; and A4U G27C C31U, with 0.03; and G5A C10A G29U C42A, with 0.02. As for G5A C13A A14C C37A, the self-cleavage came to 0.05. With G5A C13U G21U, the self-cleavage was found to be 0.65. For G5A A6G C10A C42U the value was 0.03; for G5A A26G U32G A41G C46A, 0.01; for G5A A6G C10U U34C, 0.02. Take G5A A6C U9C G36A A39U: the self-cleavage amounted to 0.03. For G5A A25G G27A G40C the value was 0.11. For A4U G19U G21U G27U the value was 0.07. Then A4U U32A C42G, with 0.04; and G5A C10G G22A G27U C45U, with 0.01; and G5A A6C G19U C37G C45U, with 0.02. Regarding G5A A14C G35U, the self-cleavage was 0.25.

G5A C10U A14C: the self-cleavage came to 0.03. For G5A C15A A26U U28C the value was 0.01; for G5A A16G A39C, 0.08; for G5A A24G G44U C45U, 0.02. G5A C18G A39U: the self-cleavage came out at 0.08. For G5A C13U U38A C45A the value was 0; for G5A A12G C15G G29U, 0.02. Then G5A A6G G21U A41G, with 0.05; and G5A C15U G21C G29A G40U, with 0.14; and G5A A6U C18U G19A, with 0.05. Take A4U G35U G40A: the self-cleavage was determined as 0.11. Then G5A A14C C18U G35A A39G A41U, with 0.18; and G5A A16U C23G G36C, with 0.04; and A4U G22U A25U C31A G40U, with 0.11. Then A4U U9C G17U C42G, with 0.02; and G5A A12U U20C, with 0.03.

G5A A6C C8U: the self-cleavage came out at 0.06. For G5A A11U C46A the value was 0.02; for G5A A6U G22A, 0.11. For G5A C10U G27U G30C, the self-cleavage is 0.03. Then G5A A16C C18G G36C, with 0.01; and A4U G19U C23U U43C, with 0.04; and G5A C8A C18A G21U A24C G35C, with 0.07. Turning to G5A A14C C18A C23U, the self-cleavage stood at 0.16. As to G5A A14C G29A C31U G36C, the self-cleavage stood at 0.07.

On to G5A C8A G17U U20C G21A C31A, for which the self-cleavage was determined as 0.14.

As for A4U U28A G29U G35U G40U C45A, the self-cleavage worked out at 0.02.

Regarding G5A A14G U20G G22C U43C G44U, the self-cleavage amounted to 0.04.

On to G5A A14C G36U A41G C45G, for which the self-cleavage came to 0.03. For G5A C8G G30C the value was 0.02.

Take A4U G21U C45U: the self-cleavage was 0.12. For A4U G22A C23U the value was 0.43.

Take G5A A14U C31A U32C G35U: the self-cleavage was determined as 0.05. Then A4U U9C A24U A26C, with 0.03; and G5A A14G C23A, with 0.15. In the case of A4U U9C G19U C37A, the self-cleavage stood at 0.02. With G5A C10G A11U A16C A26C G40A, the self-cleavage is 0.02. As for G5A A6U A12U C23A G44U, the self-cleavage is 0.07. Take G5A C15A C37A: the self-cleavage stood at 0.03. For the variant G5A C15A G17A G29A A41U, the self-cleavage amounted to 0.03. For G5A A25U G27C C31G U38G A39C the value was 0.28. Then G5A A11G U28G C46U, with 0.01. Then A4U U34C C45U, with 0.11; and G5A C18A C23A C46A, with 0.08; and G5A C15U C23A, with 0.05. In the case of A4U U9G A16C G19A, the self-cleavage came out at 0.01. For A4U G22U U28A U38C, the self-cleavage worked out at 0.25.

For the variant A4U G27U G44U, the self-cleavage is 0.13. Then G5A A6G G35U G44U, with 0.05; and A4U G19C G21A A24U, with 0.03. Then A4U U20C C37U, with 0.07; and A4U G21C C42U, with 0.05. Then A4U U28G G30U, with 0.03. Turning to G5A C8U C23G G35C, the self-cleavage stood at 0.08.

Consider G5A C15U G27C, for which the self-cleavage was found to be 0.03. On to G5A A6G C37U, for which the self-cleavage came to 0.14. For G5A A16C C18G U32A C37G the value was 0.04. For G5A A14C U34G U43C the value was 0; for G5A C13U A26G U38C, 0.07. Consider G5A A24G C37G, for which the self-cleavage is 0.02. Take G5A A14G U20G G33U: the self-cleavage was determined as 0.03. Then A4U U28C G44C, with 0.12. As for A4U U20A C23U A24U A25G, the self-cleavage was determined as 0.04. For A4U G22C U32C C37U, the self-cleavage was determined as 0.01. For G5A C10A G19C G35C the value was 0.02.

As for G5A A6U C42A, the self-cleavage is 0.07. Then G5A C18A G21U, with 0.02.
